# In all, about 310,000 compounds went through this assay and about 2,200 (0.71%) showed an effect of 50% or more. Effects have a minus sign here. Some of the results follow.
# Biological target: human ether-à-go-go-related gene (hERG) potassium channel (human, UniProt Q12809)
# Test: primary screen, population patch clamp on CHO cells stably expressing hERG
# Chain of human ether-à-go-go-related gene (hERG) potassium channel (Q12809 whole entry, looked up): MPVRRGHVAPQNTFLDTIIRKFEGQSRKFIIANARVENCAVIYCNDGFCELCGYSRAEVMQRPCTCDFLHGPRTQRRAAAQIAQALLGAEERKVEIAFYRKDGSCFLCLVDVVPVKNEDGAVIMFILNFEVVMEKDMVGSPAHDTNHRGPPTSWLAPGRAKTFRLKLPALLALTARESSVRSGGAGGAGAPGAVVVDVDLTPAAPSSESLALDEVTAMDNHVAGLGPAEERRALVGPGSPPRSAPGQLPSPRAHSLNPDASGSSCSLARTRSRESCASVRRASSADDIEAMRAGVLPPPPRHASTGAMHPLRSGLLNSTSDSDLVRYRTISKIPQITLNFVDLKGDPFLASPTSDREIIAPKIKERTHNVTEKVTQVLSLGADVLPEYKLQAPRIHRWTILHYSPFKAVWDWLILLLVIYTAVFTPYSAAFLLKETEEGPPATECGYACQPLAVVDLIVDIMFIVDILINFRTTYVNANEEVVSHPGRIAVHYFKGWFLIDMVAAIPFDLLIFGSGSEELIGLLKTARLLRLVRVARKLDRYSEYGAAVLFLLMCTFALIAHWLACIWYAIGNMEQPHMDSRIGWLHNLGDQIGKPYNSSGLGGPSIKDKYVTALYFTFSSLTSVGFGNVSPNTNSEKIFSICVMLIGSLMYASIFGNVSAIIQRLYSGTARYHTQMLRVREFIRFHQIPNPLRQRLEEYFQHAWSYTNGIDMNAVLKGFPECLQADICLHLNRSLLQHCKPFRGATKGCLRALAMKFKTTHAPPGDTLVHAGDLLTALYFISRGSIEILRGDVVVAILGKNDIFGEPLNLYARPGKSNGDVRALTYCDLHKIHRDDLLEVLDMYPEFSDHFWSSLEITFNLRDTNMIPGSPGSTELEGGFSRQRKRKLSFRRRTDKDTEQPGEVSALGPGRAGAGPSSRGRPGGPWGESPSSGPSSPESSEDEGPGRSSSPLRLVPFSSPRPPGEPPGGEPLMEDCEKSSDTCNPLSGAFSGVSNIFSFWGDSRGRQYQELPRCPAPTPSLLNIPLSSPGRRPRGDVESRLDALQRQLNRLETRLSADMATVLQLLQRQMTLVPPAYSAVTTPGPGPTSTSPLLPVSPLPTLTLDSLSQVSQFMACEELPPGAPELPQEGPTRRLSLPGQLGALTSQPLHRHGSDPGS
row,SMILES,"hERG current change (%, negative = inhibition) at 1uM [%]"
1,COc1ccc(NC(=O)CCN2CCN(c3ccc(F)cc3)CC2)cc1,3.95
2,Cc1c(C(=O)N2CCN(c3ccccc3)CC2)sc2ncnc(N3CCN(c4ccccn4)CC3)c12,1.37
3,COc1ccc(-c2nc(C#N)c(N3CCC(C(N)=O)CC3)o2)cc1,0.104
4,Cc1ccccc1C(=O)NC(NC(=S)Nc1ccc(S(N)(=O)=O)cc1)C(Cl)(Cl)Cl (stereo not drawn),15.9
5,C=C(C)C1CC=C(C)/C(=N/NC(=O)CCCNc2cccc(C)c2)C1 (stereo not drawn),13.2
6,O=C(NCc1ccccc1)Nc1cccn(Cc2ccccc2Cl)c1=O,11.3
7,O=C(Nc1cccc(C(F)(F)F)c1)C1CC(=O)N(CCc2ccccc2)C1 (stereo not drawn),7.45
8,COCCCNC(=O)c1ccc(C2SCC(=O)N2Cc2ccco2)cc1 (stereo not drawn),9.55
9,Cc1cc(Br)cc(C)c1OCC(=O)NNC(=O)c1cccs1,5.21
10,Cn1c(=S)[nH]c2[nH]c(=O)cnc2c1=O,4.61
11,Cc1cc(S(=O)(=O)N2CCCCC2)ccc1OCC(=O)N1CCOCC1,-4.6
12,CN(CC(=O)Nc1cccc2ccccc12)C(=O)c1cccc(S(=O)(=O)N(C)C)c1,6.51
13,CN(c1ccc(C(=O)NCCSCc2c(F)cccc2Cl)cc1)S(C)(=O)=O,9.84
14,O=S(=O)(Cc1ccccc1)N=Nc1c(O)[nH]c2ccc(Br)cc12,12.7
15,COc1ccc2[nH]c(C(=O)N/N=C/c3cc(OC)c(OC)c(OC)c3)cc2c1,9.96
16,O=S(=O)(NCc1ccncc1)c1ccccc1,7.96
17,CCOP(=O)(OCC)C(C)(C)NC(=O)C(Cl)(Cl)Cl,10.2
18,Cc1cc(-c2ccc(S(=O)(=O)NCc3ccc(F)cc3)cc2)on1,13
19,Cc1cc(C)c2nc(-c3ccccn3)cc(C(=O)NCCc3ccc(S(N)(=O)=O)cc3)c2c1,14.6
20,Cc1cccc(OCC(=O)Nc2cccc(C(=O)NCC(C)C)c2)c1,4.84
21,Cc1c(CN2CCC(Oc3ccc(C(=O)N4CCCCC4)cc3)CC2)cnn1C,7.8
22,CCCNC(=O)Cn1cnc2sc(C(=O)Nc3ccc4c(c3)OCO4)c(C)c2c1=O,7.35

row,SMILES,"hERG current change (%, negative = inhibition) at 1uM [%]"
1,CC1CCCC(C2(O)C(=O)Nc3ccccc32)C1=O (stereo not drawn),16.2
2,Cc1cc(NC(=O)CSc2nc(CCC3CCCC3)nc3ccccc23)no1,-4.97
3,O=C1CCC(C(=O)N(CCO)Cc2ccccc2)CN1CC1CCCCC1 (stereo not drawn),14.5
4,O=C(OCc1csc(-c2ccccc2)n1)c1cccs1,14.4
5,CCOc1ccc(NC(=S)Nc2ccc(OC(F)(F)F)cc2)cc1,7.91
6,O=C(OCCN=C1NS(=O)(=O)c2ccccc21)c1cccnc1,12.5
7,COc1cc(C2Nc3ccccc3NC3=C2C(=O)CC(C)(C)C3)cc(OC)c1OC (stereo not drawn),7.21
8,CCOC(=O)N1CCN(S(=O)(=O)c2ccc(C)c(C)c2)CC1,11.6
9,O=C1NC(=O)C(=Cc2cn(CCOc3ccc4c(c3)OCO4)c3ccccc23)C(=O)N1,14.7
10,N#Cc1nc(-c2ccc(F)cc2)oc1NCc1ccco1,7.32
11,CC(OC(=O)c1cccc(-n2cnnn2)c1)c1nc2ccccc2c(=O)[nH]1 (stereo not drawn),7.2
12,Cc1ccnc(SCc2cc(=O)c(OC(=O)c3ccc(Br)o3)co2)n1,5.12
13,CC1CCc2sc3c(c2C1)c(=O)n(CC(=O)O)c(=O)n3Cc1ccc(Cl)cc1 (stereo not drawn),10
14,O=C(NCCCCNC(=O)c1ccc(F)cc1)c1ccc(F)cc1,14.3
15,Cc1ccc(S(=O)(=O)c2cc3c(=O)n4cccc(C)c4nc3n(C3CCCCC3)c2=N)cc1,8.4
16,CCn1c(=O)c2c3c(sc2n(C)c1=O)CCC3,3.87
17,CCc1nnc(NC(=O)CSc2ncnc3c2cnn3-c2ccc(OC)cc2)s1,10
18,Cc1ccc(SCCC(=O)Nc2ccccc2C(=O)NC(C)C)cc1,-0.81
19,CSCC(NS(=O)(=O)c1ccc(C)cc1)C(=O)O (stereo not drawn),7.57
20,CCSc1nnc2c(Cl)cc(Cl)cn12,6.54
21,CCCCn1c(N)c(N(Cc2ccccc2OC)C(=O)CCSC)c(=O)[nH]c1=O,5.97
22,COc1cc2c(cc1OC)CN(C(=O)c1ccncc1)CC2,5.7

row,SMILES,"hERG current change (%, negative = inhibition) at 1uM [%]"
1,CCC(C)OC1OC(CO)C(O)C(O)C1NC(C)=O (stereo not drawn),12.5
2,COc1c(C)cc(C(=O)C2CCCN(Cc3ccccn3)C2)cc1C (stereo not drawn),13.6
3,O=S(=O)(c1ccc(NC(=S)NN=C(C2CC2)C2CC2)cc1)N1CCOCC1,9.57
4,O=C(O)c1ccc(-c2sc(Nc3ccccc3)n[n+]2-c2ccc(F)cc2)cc1.[Cl-],7.38
5,COc1cc(CNc2ccc3[nH]c(=O)[nH]c3c2)ccc1OCc1c(F)cccc1Cl,9.91
6,O=C(Nc1ccc(N2CCCC2)cc1)C(Cl)c1ccccc1 (stereo not drawn),-4.91
7,CN=C1S/C(=C\c2ccc(N3CCOCC3)cc2C)C(=O)N1C,16.2
8,CCn1c(O)c(N=NC(=O)CNC(=O)/C=C/c2ccco2)c2ccccc21,5.63
9,Cc1cc(C)c(C#N)c(Nc2ccccc2)n1,5.59
10,CCc1cc(=O)oc2cc(C)cc(OC(C)C(=O)NCC(O)c3ccccc3)c12 (stereo not drawn),8.7
11,COc1cc(OC)cc(C(=O)NNC(=S)NC(=O)c2cccnc2)c1,12.9
12,Cc1cc(Br)ccc1NC(=O)CN(C)C(=O)c1cc([N+](=O)[O-])ccc1N1CCOCC1,-1.68
13,CCOc1ccc(OCC)c(NC(=O)C2CCN(S(=O)(=O)c3c(C)[nH]c(=O)[nH]c3=O)CC2)c1,10.6
14,CC(=O)c1ccc(OCCCC(=O)Nc2cc(Cl)ccc2-n2cncn2)cc1,-6.8
15,Cc1c(CCC(=O)O)c(=O)n2c([nH]c3ccccc32)c1C#N,-2.51
16,COC(=O)c1[nH]c2ccc(Cl)cc2c1NC(=O)C1CC1,9.95
17,CC(=O)c1c(C)nn(CC(O)COc2ccc3c(c2)CCC3)c1C (stereo not drawn),15.7
18,Cc1ccsc1/C=N/N1CCN(Cc2ccccc2)CC1,12.3
19,O=C1c2ccccc2C(=O)N1CC(O)COc1ccccc1Cl (stereo not drawn),12.1
20,CS(=O)(=O)N1CCN(C(=O)Cc2cccs2)CC1,19.4
21,CC(C)(C)NC(=O)C(c1c[nH]c2ccccc12)N(C(=O)Cn1nnc(-c2ccc(Cl)cc2)n1)c1ccccc1F (stereo not drawn),10.2
22,Cc1ccc(CN2C(=O)CC(Nc3ccc(N4CCOCC4)cc3)C2=O)cc1 (stereo not drawn),13.9

row,SMILES,"hERG current change (%, negative = inhibition) at 1uM [%]"
1,O=C(Nc1nc2ccccc2s1)C1CCCN1S(=O)(=O)c1ccc(Cl)cc1 (stereo not drawn),8.38
2,COCCn1nnnc1CN1CCC(NC(=O)Nc2cccc(OC)c2)CC1,10
3,COc1ccc(NC(=O)CSc2ncnc3c2cnn3CCc2ccccc2)cc1,4.35
4,Cc1c(CNCCc2ccc(Cl)cc2)c(C(=O)O)c(C)n1Cc1ccccc1,-0.847
5,CCN(C(=O)COC(=O)/C=C/c1c(C)nn(Cc2ccc(C)cc2)c1C)C1CCS(=O)(=O)C1 (stereo not drawn),13.9
6,CCOC(=O)Cc1cnc(NC(=O)CSc2nc(N)cc(=O)[nH]2)s1,8.9
7,CCC(=O)NC(Nc1ncc(C)s1)(C(=O)OC)C(F)(F)F (stereo not drawn),-2.89
8,COC(=O)C1=C(C(=O)c2ccccc2)C(c2ccc(O)c(OC)c2)n2nnnc2N1 (stereo not drawn),15.2
9,O=C(CC1SC(=NCCc2ccccc2)N(/N=C/c2cccs2)C1=O)Nc1ccc(Cl)cc1 (stereo not drawn),16.7
10,COc1ccc(C2(C(=O)Nc3ccc(S(=O)(=O)Nc4nc(C)cc(C)n4)cc3)CCCC2)cc1OC,5.84
11,O=C(CSc1nc2ccc(Cl)cc2[nH]1)Nc1ccc2c(c1)CCC2,7.09
12,CCN(CC)C(=O)CC(c1ccc(N(C)C)cc1)c1c(OC)cc(OC)c2ccc(=O)oc12 (stereo not drawn),4.86
13,FC(F)(F)c1ccncc1-c1nnnn1-c1ccc(Cl)cc1,-6.85
14,COc1ccccc1/C=C/CN1CCSCC1,8.05
15,Fc1ccc(COc2ccc(-c3nnco3)cc2)c(Cl)c1,8.13
16,O=c1[nH]c(=S)n(CCC2=CCCCC2)c(O)c1/C=N/Nc1ccccc1,3.99
17,O=C(NCCN1CCCCC1)/C(=N\O)c1ccccc1,10.5
18,CCCCN(CC)CCNC(=O)CN(C)S(=O)(=O)c1ccc2c(c1)c(=O)n(C)c(=O)n2C,6.94
19,COc1ccc(OC)c(NC(=O)Cn2c(=O)n(CC3CCCO3)c(=O)c3cc(OC)c(OC)cc32)c1 (stereo not drawn),7.48
20,O=C1CCC(C(=O)NCCN2C(=O)S/C(=C\c3cccnc3)C2=O)=NN1,4.89
21,COc1cccc(OCC(O)CN2CCC(CN3C(=O)c4cccc5cccc(c45)C3=O)CC2)c1.Cl (stereo not drawn),-41
